In all, about 73,000 compounds went through this assay and about 1,800 (2.5%) were called active. The shares of active, inactive and inconclusive entries below differ from those in the screen. Calls come from the whole dose curve; as a rule, active = well fitted activation curve with a large enough effect; inconclusive = small, poorly fitted or top-dose-only effect; inactive = no such curve, though single readings can be large or run the other way. Potencies of inconclusive entries are left out as doubtful fits.
assay: qHTS Assay for Agonists of the Thyroid Stimulating Hormone Receptor: Activators of Intracellular cAMP Concentrations in Parental HEK 293; settings: parental HEK293 CNG cAMP sensor, membrane potential fluorescence; activation: at 57.1 µM (top of the series) unless noted; note: nearly all actives have a fitted effect of over 55% in size; for activation: % of control where 0% means no effect
In short: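 Parental HEK 293 cells stably expressing a cAMP-gated CNG channel were loaded with membrane potential dye containing 100 uM RO 20-1724 for 60 min. Compound added for 30 min; depolarization read as fluorescence intensity at 590 nm.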
Potency is the fitted concentration of half-maximal effect; tags give direction and shape of the fitted curve.

Row | SMILES | Potency | activation
1 | COc1cccc(-n2nnc3c(=O)n(Cc4ccc(F)cc4)cnc32)c1 | inconclusive [activator, partial curve] | 
2 | CN(C)c1ncc2nc(-c3ccc(Cl)cc3)c(=O)n(CCC#N)c2n1 |  | inactive: -26.7%
3 | Oc1ccc2ccccc2c1C=NCc1c(O)ccc2ccccc12 |  | inactive: 1.97% [at 11.4 µM]
4 | CCCn1c(-c2ccc(F)cc2)nc2c(NCCCN3CCOCC3)nc(C)nc21 | inconclusive [activator, single point] | 
5 | CCOc1cc(C)c(S(=O)(=O)NC2CCCCC2)cc1C |  | inactive: 30%
6 | CCC(C)Sc1nnc(-c2c[nH]c3ccccc23)n1CCOC (centres undefined) | inconclusive [activator, full curve] | 
7 | Cc1ccc(C(=O)/C=C/Nc2ccccc2C(N)=O)o1 |  | inactive: 4.95%
8 | CC(C)OCCCN1C(=O)c2ccccc2C1C(=O)NC1CCCCC1 (centres undefined) | inconclusive [activator, single point] | 
9 | Cc1ccc(CNC(=O)C2c3ccccc3C(=O)N3CCc4ccccc4C23)o1 (centres undefined) | inconclusive [activator, partial curve] | 
10 | O=C(CN1CCN(c2ccccn2)CC1)Nc1cc(C(F)(F)F)ccc1Cl | inconclusive [activator, single point] | 
11 | COc1cc2cc(C(c3nnnn3C(C)(C)C)N3CCc4ccccc4C3)c(=O)[nH]c2cc1OC (centres undefined) | inconclusive [activator, single point] | 
12 | N#Cc1ccccc1-c1ccc2ncnc(NCc3ccccc3)c2c1 | inconclusive [activator, partial curve] | 
13 | COc1cc(-c2nnc(SCC(=O)N(Cc3ccccc3)C(C)(C)C)o2)cc(OC)c1OC | inconclusive [activator, single point] | 
14 | CN(C)CCN1C(=O)CC[C@]2(C)C1=CC[C@@H]1[C@@H]2CC[C@]2(C)[C@H]1CC[C@]2(C)O |  | inactive: -3.37% [at 11.4 µM]
15 | COc1ccc(C(=O)CSc2nnnn2Cc2ccccc2)cc1 |  | inactive: 22%
16 | Cc1ccccc1-c1nc(CS(=O)(=O)CC(=O)NCc2ccc3c(c2)OCO3)c(C)o1 | inconclusive [activator, partial curve] | 
17 | CSc1nsc(SC)c1C(=O)N1CCN(S(=O)(=O)c2ccc(C)cc2)C1C (centres undefined) | inconclusive [activator, full curve] | 
18 | Cc1ccc2nc3ccc(N4CCN(C)CC4)nn3c(=O)c2c1 |  | inactive: 3.85%
19 | O=C(Oc1ccccc1)N1CCC2(CC1)CN(c1ccccc1)C2 | inconclusive [activator, partial curve] | 
20 | CO[C@]1(NC(=O)Cc2cccs2)C(=O)N2C(C(=O)O)=C(COC(N)=O)CS[C@H]21 |  | inactive: 3.55% [at 25.6 µM]
21 | COc1ccc(NC(=O)N(C2CCCCC2)C(C)c2ccco2)c(OC)c1 (centres undefined) | inconclusive [activator, partial curve] | 
22 | CN1CC(=O)N(C)c2ncn(Cc3ccccc3)c2C1=O | inconclusive [activator, single point] | 
23 | COc1cccc(C(=O)NCC(c2cccnc2)N2CCN(c3ccccc3OC)CC2)c1 (centres undefined) | inconclusive [activator, single point] | 
24 | c1ccc(C[n+]2cccc(-c3cc4ccccc4[nH]3)c2)cc1 |  | inactive: -1.55% [at 11.4 µM]
25 | N#CCCN1CCN(S(=O)(=O)c2ccc(S(=O)(=O)NC3CC3)cc2)CC1 |  | inactive: 2.86%

Row | SMILES | Potency | activation
26 | CCOC(=O)c1[nH]c2ccc(OC)cc2c1NC(=O)c1nonc1C | inconclusive [activator, single point] | 
27 | Cc1ccc(CC(=O)N2CCC(c3nc4c(nnn4Cc4ccccc4)c(=O)[nH]3)CC2)cc1 |  | inactive: 7.72%
28 | Cc1ccc2c(c1)N(CC(=O)NC1CCCc3ccccc31)C(=O)CO2 (centres undefined) | inconclusive [activator, full curve] | 
29 | OC1CN=C2CCCc3c2n(c2ccc(Cl)cc32)C1 (centres undefined) |  | inactive: 1.1%
30 | O=C(Nc1cccc(NC(=O)c2nccc3ccccc23)c1)c1ccco1 | inconclusive [activator, single point] | 
31 | COCCN(C(=O)CCCC(=O)Nc1ccccn1)C(C(=O)NC1CCCCC1)c1ccc(C)cc1 (centres undefined) | active: 7.94 µM | 
32 | Cc1cc(NCCCN2CCOCC2)n2ncc(-c3ccc(Cl)cc3)c2n1 |  | inactive: -14.4%
33 | c1ccc(-c2cccc(N3CC4(CCNCC4)C3)c2)cc1 |  | inactive: 25.6%
34 | COC(=O)c1cn(C(C)C(=O)NCc2ccco2)c2ccccc12 (centres undefined) |  | inconclusive: 33.1% [activator]
35 | O=C(CN1CCN(c2ccccc2)CC1)Nc1nnc(-c2ccccc2)s1 | inconclusive [activator, single point] | 
36 | Cc1nc2sc(-c3ccccc3)cc2c(=O)n1-n1cccc1 | inconclusive [activator, single point] | 
37 | CCOC(=O)C1CCN(C(=O)CSCc2nc(-c3ccc(OCC)cc3)oc2C)CC1 | inconclusive [activator, single point] | 
38 | N#CCCn1c(=O)c(-c2ccc(Cl)cc2)nc2cnc(OCc3ccccc3)nc21 |  | inactive: -3.54%
39 | CCOC(=O)c1c(NC(=O)COC)sc(C(C)=O)c1C |  | inactive: 20.8%
40 | Cc1cccc2cc(C#N)c(NCCNC(=O)NC3CCCCC3)nc12 | active: 20 µM | 
41 | CCC(=O)Nc1cc(-c2nnc(OC)c3ccccc23)ccc1N1CCOCC1 |  | inactive: 4.47%
42 | COC(=O)c1cc(OC)c(OC)cc1NC(=O)Cn1nnc(-c2ccccc2Cl)n1 | inconclusive [activator, full curve] | 
43 | Cc1ccc(OCc2nnc(SCc3cc(=O)[nH]c4ccccc34)o2)cc1 | inconclusive [activator, single point] | 
44 | O=C(O)c1cc(-c2ccncc2)nc2ccccc12 |  | inactive: 0.391% [at 11.4 µM]
45 | Cc1ccc(S(=O)(=O)Cc2ccc(C(=O)NCc3ccc4c(c3)OCO4)o2)cc1 |  | inactive: 16.3%
46 | N#Cc1ccccc1NC(=O)c1ccc(-c2ccccc2Cl)o1 | active: 25.1 µM | 
47 | COc1ccc(OC)c(NC2c3ccccc3C(=O)N2Cc2ccc3c(c2)OCO3)c1 (centres undefined) |  | inactive: 10.8%
48 | CS(=O)(=O)N(CC(=O)NCCSc1ccc(Cl)cc1)c1ccc2c(c1)OCO2 |  | inactive: 2.35%
49 | O=C(CSc1nc(-c2ccco2)cc(C(F)(F)F)n1)NCCc1ccccc1 | inconclusive [activator, single point] | 
50 | Cn1c(=O)n(CCc2ccccc2)c(=O)c2c1nc1n2CCCN1Cc1ccccc1 |  | inactive: -4.68%

Row | SMILES | Potency | activation
51 | CCn1cc(C(=O)N2CC(C)CC(C)C2)c(=O)c2cc(S(=O)(=O)N(C)C)ccc21 (centres undefined) | inconclusive [activator, single point] | 
52 | CC1CCCCN1Cc1nc2c(c(=O)n(C)c(=O)n2C)n1CCCc1ccccc1 (centres undefined) | inconclusive [activator, partial curve] | 
53 | Cc1ccccc1Cn1ccc(NC(=O)c2cnn3c(C(F)(F)F)cc(-c4ccco4)nc23)n1 | inconclusive [activator, partial curve] | 
54 | Cc1cc(C)n(-c2nc3ccccc3c(=O)n2OCC(=O)N(C)C)n1 |  | inactive: 4.04%
55 | Cn1c(CSCc2ccc(F)cc2)nnc1SCC(=O)Nc1nccs1 | inconclusive [activator, single point] | 
56 | O=C(C1CCCN(S(=O)(=O)c2ccc(Cl)cc2)C1)N(Cc1cccs1)C1CC1 (centres undefined) | inconclusive [activator, partial curve] | 
57 | CCc1cc(-c2[nH]ncc2-c2ccc3c(c2)OCO3)c(O)cc1O | active: 25.1 µM | 
58 | Cc1nc2scc(-c3cccs3)c2c(=O)n1-n1cccc1 | active: 31.6 µM | 
59 | OC(c1ccccc1)C1CN(Cc2ccccc2)CCC1(O)c1ccccc1 (centres undefined) | inconclusive [activator, single point] | 
60 | CN(Cc1ccco1)c1nc(-c2ccccc2Cl)nc2ccccc12 |  | inactive: 23.4%
61 | CCCCNC(=O)c1sc(=S)n2c1[nH]c(=O)c1ccccc12 | inconclusive [activator, partial curve] | 
62 | O=C(O)c1ccc(C2SCC(=O)N2Cc2ccccc2)cc1 (centres undefined) |  | inactive: 1.73%
63 | COc1ccccc1NC(=O)N1CCN(c2cccc(C(F)(F)F)c2)CC1 | inconclusive [activator, partial curve] | 
64 | CC12CN(Cc3ccccc3)CC(C)(CN(Cc3ccccc3)C1)C2=NO | inconclusive [activator, full curve] | 
65 | Cc1ccccc1-c1cncnc1N(C)Cc1ccco1 |  | inactive: 0.531%
66 | COc1ccccc1NC(=O)CN1CCN(c2ccccc2F)CC1 |  | inactive: 25.5%
67 | COc1ccc(CNc2ccc(S(N)(=O)=O)cc2)c(OC)c1OC |  | inactive: 9.82%
68 | N#Cc1c(NC(=O)CCn2cnc3ccccc3c2=O)oc(-c2ccccc2)c1-c1ccccc1 | inconclusive [activator, partial curve] | 
69 | COc1ccc(C)cc1S(=O)(=O)N1CCCCC1 | inconclusive [activator, single point] | 
70 | COC(=O)C/C=C\[C@@H](C)[C@@H](/C=N\O[C@@H](C)c1cn([C@H]2COC[C@H]2O)nn1)OC |  | inactive: -1.57% [at 11.4 µM]
71 | COC(=O)c1cc(COC(=O)c2cccnc2SC)oc1C | inconclusive [activator, single point] | 
72 | C[C@H]1CCCC2(CC[N+](C)(CCC[N+](C)(C)C)CC2)C1 (some centres undefined) |  | inactive: 1.29% [at 11.4 µM]
73 | COc1ccc(C(=O)NCCCn2ccnc2)cc1 | active: 1.26 µM | 
74 | CN(C)Cc1ccccc1-c1cc(NCc2ccccc2)ncn1 | inconclusive [activator, full curve, poor fit] | 
